Assay results reported in article PMC12820563.
This is one part of the list. The list includes weakly bound sequences.

molecular target: T1, MBP-FoxP3dN (UniProt Q99JB6); test: PD-seq (MBP pull-down with sequencing); conditions: 20 mM Tris-HCl pH 7.5, 100 mM NaCl, 1.5 mM MgCl2, 0.4 uM protein, 0.1 uM dsDNA library, 30 min, room temperature, amylose pull-down; high values mean tight binding; double strand, one strand shown
T1 sequence: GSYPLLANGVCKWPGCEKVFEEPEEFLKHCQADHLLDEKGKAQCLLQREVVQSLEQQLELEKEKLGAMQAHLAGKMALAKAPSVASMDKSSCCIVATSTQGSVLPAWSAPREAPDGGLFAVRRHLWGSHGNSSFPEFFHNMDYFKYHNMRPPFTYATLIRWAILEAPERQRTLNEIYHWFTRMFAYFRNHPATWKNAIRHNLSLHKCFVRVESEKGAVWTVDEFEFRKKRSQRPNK

Sequence | binding signal (RPM ratio (pull-down/input))
GATGATTGTTCTCCCAGCTGATGAATTGCCGTGCTCGAGTAAACAAATTTTCCTAATCTTTCTGTTCAAGCGCCATCTAC | 0.634
GATGATTGTTCTCCCAGCTGATGAATTCGGTGGCTCGAGTAAACAAATTTTCCTAATCTTTCTGTTCAAGCGCCATCTAC | 0.613
GATGATTGTTCTCCCAGCTGATGAATTACCAGCTTCGAGTAAACAAATTTTCCTAATCTTTCTGTTCAAGCGCCATCTAC | 0.3
GATGATTGTTCTCCCAGCTGATGAATTGCTGGTATCGAGTAAACAAATTTTCCTAATCTTTCTGTTCAAGCGCCATCTAC | 0.915
GATGATTGTTCTCCCAGCTGATGAATTTCGATTTTCGAGTAAACAAATTTTCCTAATCTTTCTGTTCAAGCGCCATCTAC | 1.11
GATGATTGTTCTCCCAGCTGATGAATTGTCTGCCTCGAGTAAACAAATTTTCCTAATCTTTCTGTTCAAGCGCCATCTAC | 0.506
GATGATTGTTCTCCCAGCTGATGAATTTGTCGTGTCGAGTAAACAAATTTTCCTAATCTTTCTGTTCAAGCGCCATCTAC | 5.6
GATGATTGTTCTCCCAGCTGATGAATTTCAGGTCTCGAGTAAACAAATTTTCCTAATCTTTCTGTTCAAGCGCCATCTAC | 0.426
GATGATTGTTCTCCCAGCTGATGAATTAATGATGTCGAGTAAACAAATTTTCCTAATCTTTCTGTTCAAGCGCCATCTAC | 1.06
GATGATTGTTCTCCCAGCTGATGAATTCCTCTCGTCGAGTAAACAAATTTTCCTAATCTTTCTGTTCAAGCGCCATCTAC | 0.225
GATGATTGTTCTCCCAGCTGATGAATTCAAGGAGTCGAGTAAACAAATTTTCCTAATCTTTCTGTTCAAGCGCCATCTAC | 0.19
GATGATTGTTCTCCCAGCTGATGAATTCCGCTAATCGAGTAAACAAATTTTCCTAATCTTTCTGTTCAAGCGCCATCTAC | 0.316
GATGATTGTTCTCCCAGCTGATGAATTACGACTTTCGAGTAAACAAATTTTCCTAATCTTTCTGTTCAAGCGCCATCTAC | 1.33
GATGATTGTTCTCCCAGCTGATGAATTAACACTTTCGAGTAAACAAATTTTCCTAATCTTTCTGTTCAAGCGCCATCTAC | 0.552
GATGATTGTTCTCCCAGCTGATGAATTGGTAGGCTCGAGTAAACAAATTTTCCTAATCTTTCTGTTCAAGCGCCATCTAC | 0.509
GATGATTGTTCTCCCAGCTGATGAATTGTAGAAGTCGAGTAAACAAATTTTCCTAATCTTTCTGTTCAAGCGCCATCTAC | 0.237
GATGATTGTTCTCCCAGCTGATGAATTTTTGTGTTCGAGTAAACAAATTTTCCTAATCTTTCTGTTCAAGCGCCATCTAC | 1.04
GATGATTGTTCTCCCAGCTGATGAATTCGGGTCCTCGAGTAAACAAATTTTCCTAATCTTTCTGTTCAAGCGCCATCTAC | 0.552
